# In all, about 45,000 compounds went through this assay and about 200 (0.44%) were called active. Inconclusive results (about 7%) are left out. Calls follow the shape of the dose curve; as a rule, active = well fitted activation curve with a large enough effect; inconclusive = small, poorly fitted or top-dose-only effect; inactive = no such curve, though single readings can be large or run the other way. The list shows a part of the results.
# Assay: qHTS of TDP-43 Inhibitors: NCGC Sytravon Library Screen; also: 0% is about no effect; nearly all actives have a fitted effect of over 55% in size
# Conditions: yeast TDP-43 toxicity rescue, BacTiter-Glo growth, 24 h; series mostly up to 46.1 µM; growth rescue (activation): at the top concentration
# How it was run: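 TDP-43-expressing yeast, pregrown in raffinose, seeded at OD600 0.02 in galactose medium with compound for 24 hr at 30 deg C. Growth read by BacTiter-Glo luminescence, so rescue of toxicity appears as activation.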
row,SMILES,growth rescue (activation)
1,C/C(CC(=O)Nc1ccc2c(c1)OCCO2)=N\NC(=O)c1ccccc1Cl,inactive: -13.7%
2,CCc1nc2c(OCc3ccc(OC(F)F)cc3)cccn2c1N(C)C(=O)c1cccs1,inactive: -2.47%
3,CC(=O)c1ccc(-c2ccc(C(=O)NCC(c3ccco3)N(C)C)o2)cc1 (stereo unspecified),inactive: 14.5%
4,Oc1cccnc1CCc1ccccc1,inactive: 2.82%
5,Cc1ccc(C)c(CN2C(=O)c3ccccc3S(=O)(=O)c3ccc(C(=O)N4CCCCCC4)cc32)c1,inactive: 15%
6,COc1ccc(NC(=O)N2CCCC2C(=O)NCC2CCCCC2)cc1 (stereo unspecified),inactive: 8.86%
7,O=C(/C=C/c1cccc(F)c1)N1CCc2ccccc21,inactive: 24.6%
8,Cc1cc(C)n(C(C)CNS(=O)(=O)c2ccc(Cl)cc2)n1 (stereo unspecified),inactive: -9.14%
9,O=C(NCc1cccnc1)c1cccc(-c2cc3ccccc3oc2=O)c1,inactive: 3.43%
10,O=C(NCC1CCCO1)C1CC(=O)N(c2ccc(Cl)cc2)C1 (stereo unspecified),inactive: -16.6%
11,C/C(=N\NC(=O)c1ccc(CN2CCOCC2)cc1)c1ccc(NC(=O)c2ccccc2)cc1,inactive: 12%
12,O=C(Nc1cccc(C(=O)O)c1)/C(=C\c1ccco1)NC(=O)c1ccccc1,inactive: -7.03%
13,Cc1onc(-c2ccccc2)c1C(=O)N1CCN(c2ncccn2)CC1,inactive: 7.63%
14,CC(C)(C)c1nnc(NC(=S)Nc2ccccc2)s1,inactive: 18%
15,CCOC(=O)c1cnc2ccc(C)cc2c1N(C)Cc1ccccc1,inactive: -15.6%
16,COC(=O)CNC(c1ccccc1)c1cc(Br)ccc1NC(=O)CNC(=O)OCc1ccccc1 (stereo unspecified),inactive: 14.9%
17,O=C1N(c2ccccc2)C2CS(=O)(=O)CC2N1c1ccc(Br)cc1 (stereo unspecified),inactive: -10.3%
18,COc1ccc(CN2CCN(C(=O)C3CCC(CNS(=O)(=O)c4ccccc4)CC3)CC2)c(OC)c1OC (stereo unspecified),inactive: 15.2%
19,Cc1ccc(N(CC(=O)NC(C)(C)C)C(=O)CNC(=O)c2cccs2)cc1,inactive: -7.94%
20,CC(=O)c1ccc(C(=O)NC2CCCN(Cc3ccc(Cl)cc3)C2)s1 (stereo unspecified),inactive: 9.64%
21,O=C(/C=C/Nc1ccc(Nc2ccccc2)cc1)c1cccs1,inactive: -6.74%
22,Cc1cc(Oc2ccc(Br)cc2)nc(SCC(=O)c2ccccc2)n1,inactive: -5.62%

row,SMILES,growth rescue (activation)
1,CCCCc1ccc(S(=O)(=O)NC(=O)C2(C)CCN2C(=O)CCc2cccs2)cc1 (stereo unspecified),inactive: 21.4%
2,O=C(OCC(=O)N1CCCC1)c1cccs1,inactive: 0.0991%
3,O=C(NC1CCCCC1)N1CCN(Cc2nc3ccccc3c(=O)[nH]2)CC1,inactive: 14.1%
4,COc1ccc(C(=O)NNC(=O)c2ccc(C(C)(C)C)cc2)cc1,inactive: 14.7%
5,CC(=O)c1cc(-c2ccc(F)cc2)n(CCC(=O)Nc2cccnc2)c1C,inactive: -9.08%
6,CCOC(=O)C1(C)CCN1C(=O)c1ccc(C(F)(F)F)cc1 (stereo unspecified),inactive: 6.43%
7,Cc1ccc(-c2nnc(SCC(=O)N/N=C/c3ccc(C)s3)n2-c2ccc(C)cc2)cc1,inactive: -5.7%
8,O=C(c1cccnc1)N(Cc1ccccc1)C1(C(=O)Nc2ccccc2)CCCCC1,inactive: 17.1%
9,CCn1c(C)nc2cc(C(=O)N/N=C/c3ccc(OC)c(O)c3)ccc21,inactive: 11.4%
10,O=C(CCCCCCCCCCC(=O)NCc1cccnc1)NCc1cccnc1,inactive: -6.31%
11,Cn1cc(-c2csc(C(O)c3ccc(F)cc3)n2)cn1 (stereo unspecified),inactive: 38.8%
12,Cc1ccc(C(=O)NN2C(=O)C3C4c5ccccc5C(c5ccccc54)[C@@H]3C2=O)cc1 (stereo partly specified),inactive: -20%
13,Cc1nnc(SCC2=C(C(=O)O)N3C(=O)C(NC(=O)C(C)n4nc(C(F)(F)F)cc4C)C3SC2)s1 (stereo unspecified),inactive: -3.1%
14,Cc1[nH]n(-c2cccc(Cl)c2)c(=O)c1C=NCc1ccco1,inactive: 19.4%
15,CC(Sc1nnc2c(n1)[nH]c1ccccc12)C(=O)N(C)C1CCCCC1 (stereo unspecified),inactive: 8.77%
16,O=C(/C=C/c1ccc(Cl)cc1)Nc1ccc(CN2CCOCC2)cc1,inactive: -2.5%
17,CCN(CC)C1=NS(=O)(=O)c2cc([N+](=O)[O-])ccc21,inactive: 6.97%
18,COC(=O)c1cccc(Nc2nc(-c3ccncc3)nc3ccccc23)c1,inactive: 10.2%
19,O=C(c1cccs1)N1N=C(c2ccccc2)CC1c1ccccc1O (stereo unspecified),inactive: 10.6%
20,CCCNC(=O)C1(C)CCCN(Cc2ccc(-c3ccccc3)o2)C1 (stereo unspecified),inactive: -1.43%
21,O=C1C(Nc2ccc(O)cc2)=C/C(=N/S(=O)(=O)c2cccs2)c2ccccc21,inactive: -16.4%
22,O=C(Nc1cccc(Cl)c1)c1cncn1-c1ccc(F)cc1,inactive: 2.61%

row,SMILES,growth rescue (activation)
1,COc1ccc(OCc2nnc(SC(C)C(=O)Nc3ccc(N4CCOCC4)cc3)n2C)cc1 (stereo unspecified),inactive: -10.8%
2,O=C(Cc1ccccc1F)NCC(c1ccco1)N1CCCCC1 (stereo unspecified),inactive: 14.3%
3,Cc1ccc(C(=O)COC(=O)c2cc(=O)[nH]c3ccccc23)cc1,inactive: -21.8%
4,CC(=O)N1CCc2cc(N=NC3=C(O)CC(C)(C)CC3=O)ccc21,inactive: -7.67%
5,N#Cc1ccccc1Sc1ccccc1C(=O)N1CCOCC1,inactive: -8.83%
6,COc1ccc(OC)c(NC(=O)CCn2ccnc2)c1,inactive: -2.69%
7,CC(NC(=O)c1cc2ccccc2oc1=O)c1ccc(O)cc1 (stereo unspecified),inactive: -7.84%
8,COc1ccc(NC(=O)CCS(=O)(=O)c2cccc3nonc23)cc1Cl,inactive: 6.28%
9,COCCN1C(=O)C(CC(=O)Nc2ccc(C(C)=O)cc2)SC1=Nc1ccccc1 (stereo unspecified),inactive: 11.2%
10,O=C(O)/C=C/C(=O)Nc1ccc(NC(=O)c2ccccc2)c(Cl)c1,inactive: -1.28%
11,NS(=O)(=O)c1cccc(NC(=O)c2ccc(NS(=O)(=O)c3cccc([N+](=O)[O-])c3)cc2)c1,inactive: -9.78%
12,O=C(NC1CC1)C1CCN(C2CCN(C(=O)Cc3ccc(F)cc3)CC2)CC1,inactive: 2.73%
13,Cc1nc2c3cnn(-c4ccc(C)c(C)c4)c3ncn2n1,inactive: 6.93%
14,O=C(NCc1cccnc1)c1cc(C2CCCCN2S(=O)(=O)c2ccccc2)on1 (stereo unspecified),inactive: 20.4%
15,Cc1ccccc1NC1(C#N)C(=O)Nc2ccccc21 (stereo unspecified),inactive: 26%
16,CCCc1nc(SCc2ccc(OCC)cc2)n[nH]1,inactive: 16.5%
17,CCOC(=O)c1ccc2c(c1)nc(-c1ccc(F)cc1)c1nccn12,inactive: 0.578%
18,CSc1nnc(C(C)(C)C)c(=O)n1/N=C/c1ccc(C(C)C)cc1,inactive: -7.85%
19,COc1ccccc1NS(=O)(=O)c1cccc2nsnc12,inactive: 13.1%
20,COc1cc(/C=N/N2C(C)CCCC2C)cc(Br)c1O (stereo unspecified),inactive: 5.37%
21,CN(C)CCCn1c(=S)[nH]c2ccccc2c1=O,inactive: -6.09%
22,O=C(CCCN1C(=O)/C(=C\c2cccs2)SC1=S)NNC(=O)c1cccnc1,inactive: 2.4%

row,SMILES,growth rescue (activation)
1,O=C(N/N=C/c1ccc(C(F)(F)F)cc1)c1ccc(O)cc1,inactive: 19.5%
2,COc1ccc(NC(=O)C/C(C)=N/NC(=O)c2cnccn2)c(OC)c1,inactive: -17%
3,Cc1ccc(C)c(S(=O)(=O)N2CCN(Cc3ccc(O)c4ncccc34)CC2)c1,inactive: 18.9%
4,COc1ccc(-n2nnnc2SCC(=O)N(C)C2CCS(=O)(=O)C2)cc1 (stereo unspecified),inactive: 1.66%
5,Cc1cc(C(=O)CN2C(=O)NC3(CCCc4sccc43)C2=O)c(C)n1-c1ccc(Cl)cc1 (stereo unspecified),inactive: 9.4%
6,O=C(COc1ccc(S(=O)(=O)NC2CCCC2)cc1)NCC1CCCO1 (stereo unspecified),inactive: 8.49%
7,CCCC(c1nnnn1C(C)(C)C)N1CCN(Cc2ccccc2OC)CC1 (stereo unspecified),inactive: 0.446%
8,CCOC(=O)c1ccc(N2C(=O)c3n[nH]c(C)c3C2c2ccco2)cc1 (stereo unspecified),inactive: -14.7%
9,Cc1cc(NC(=O)c2ccc(Cl)c(S(=O)(=O)N3CCOCC3)c2)no1,inactive: 2.2%
10,O=C(CCCN1C(=O)/C(=C\c2cccs2)SC1=S)Nc1ccc(C(=O)O)cc1,inactive: -15.7%
11,CCOc1ccc(CN2CCN(Cc3ccsc3)C(CCO)C2)cc1CO (stereo unspecified),inactive: 14.6%
12,O=C(Cc1cccc2ccccc12)Nc1cc(Cl)ccc1C(=O)O,inactive: 5%
13,COc1ccc(NC(=O)CN2CCCN(S(=O)(=O)c3ccc(F)cc3)CC2)c(OC)c1,inactive: 8.55%
14,CCn1cc(C(=O)OCC(=O)Nc2cccc(Cl)c2Cl)c(=O)c2ccc(C)nc21,inactive: 36.2%
15,COc1ccc(OC)c(Cc2nnc(CCC(=O)NC3C4CC5CC(C4)CC3C5)o2)c1 (stereo unspecified),inactive: 9.41%
16,O=C(O)c1cccc(S(=O)(=O)N2CCCC(c3nc4c(nnn4Cc4ccc(F)cc4)c(=O)[nH]3)C2)c1 (stereo unspecified),inactive: 14.8%
17,CCS(=O)(=O)N1Cc2ccccc2CC1C(=O)Nc1nnc(SCc2ccc(C#N)cc2)s1 (stereo unspecified),inactive: -22.5%
18,N#C/C(=C/c1ccc(N2CCCCC2)o1)C(=O)NCCc1c[nH]c2ccccc12,inactive: 14%
19,COCCNc1nnc(SCC(=O)Nc2sc3c(c2C(=O)c2ccccc2)CCCC3)s1,inactive: 25.2%
20,O=C(NC1CCCC1)c1cc(-c2cccc(Cl)c2)on1,inactive: 27.9%
21,O=c1cnnc(Nc2ccc(F)cc2)[nH]1,inactive: 1.41%
22,Cc1nc(C(F)(F)F)ccc1C(=O)N1CCCCCC1(C)C(=O)NCC(C)C (stereo unspecified),inactive: -8.81%

row,SMILES,growth rescue (activation)
1,Cc1nc2ccccc2nc1OCC(=O)NCC(F)(F)F,inactive: 4.55%
2,CCOc1ccc(OCC)c(NC(=O)CCSCCc2ccccn2)c1,inactive: -4.73%
3,COc1cc(C)ccc1S(=O)(=O)NC(=O)C1(C)CCN1C(=O)COc1ccc(Cl)cc1 (stereo unspecified),inactive: 6.53%
4,Cc1ccc(N2CC(C(=O)Nc3nc4ccc(S(C)(=O)=O)cc4s3)CC2=O)cc1C (stereo unspecified),inactive: 4.91%
5,CCC(=O)NCCc1nc2cc(NC(=O)c3ccccc3Cl)ccc2n1C,inactive: -16.2%
6,O=C(O)c1cc(-c2cccc(Cl)c2)nc2nc(N3CCCCC3)sc12,inactive: -3.88%
7,C=CCc1cccc(/C=N/NC(=O)CCC(=O)Nc2ccc(C)cc2)c1O,inactive: -9.81%
8,COc1ccc(C(C)=O)cc1CSc1ncccn1,inactive: 25.3%
9,CCOc1ccc(Cl)cc1S(=O)(=O)N1CCC(C(=O)NCc2cccnc2)CC1,inactive: -5.14%
10,CCN1CC(CN(C)Cc2cn(-c3ccc(C)cc3)nc2-c2cccc(C)c2)CC1=O (stereo unspecified),inactive: 7.14%
11,CN(C)C(=O)c1nc2ccc(Cl)cn2c1CNCc1ccccc1OC(F)(F)F,inactive: -6.08%
12,N#C/C(=C\c1cn(Cc2cccc(F)c2)c2ccccc12)C(=O)NCc1ccco1,inactive: -3.86%
13,Cc1nnc(SCc2ccccc2)c2cc3sccc3n12,inactive: 25.4%
14,CCOC(=O)C(=O)N1CCN(CC)CC1,inactive: 6.73%
15,O=C(CN1CCN(C(=O)CN2C(=O)NC3(CCCC3)C2=O)CC1)Nc1cccc(F)c1,inactive: 34.4%
16,O=C(/C=C/Nc1ccc(Br)cc1F)c1ccccc1,inactive: -10.3%
17,Cc1ccc(NC(=O)C2Cc3ccccc3CN2C(=O)c2ccco2)cc1S(=O)(=O)N(C)C (stereo unspecified),inactive: -0.631%
18,COc1nccnc1NS(=O)(=O)c1ccc(NC(=O)c2ccc(F)cc2)cc1,inactive: 11.4%
